Source: PubChem BioAssay AID1347165 (National Center for Advancing Translational Sciences (NCATS), 2019)
“And” between values parts separate entries of the source, which are not always exact repeats. Identical values can stand only once. Out of some 220,000 compounds screened, about 5,700 (2.6%) were called active. Inconclusive means that the source gave no clear call. Such entries were picked first, then a sample of the others. Calls follow the shape of the dose curve; as a rule, active = well fitted inhibition curve with a large enough effect; inconclusive = small, poorly fitted or top-dose-only effect; inactive = no such curve, though single readings can be large or run the other way. Potencies beside an inconclusive call are fits to weak or partial responses and may not hold up.

Molecular target: Lysine-specific demethylase 5B (Homo sapiens) (UniProt Q9UGL1)
UniProt Q9UGL1, sequence (Q9UGL1 whole entry, looked up): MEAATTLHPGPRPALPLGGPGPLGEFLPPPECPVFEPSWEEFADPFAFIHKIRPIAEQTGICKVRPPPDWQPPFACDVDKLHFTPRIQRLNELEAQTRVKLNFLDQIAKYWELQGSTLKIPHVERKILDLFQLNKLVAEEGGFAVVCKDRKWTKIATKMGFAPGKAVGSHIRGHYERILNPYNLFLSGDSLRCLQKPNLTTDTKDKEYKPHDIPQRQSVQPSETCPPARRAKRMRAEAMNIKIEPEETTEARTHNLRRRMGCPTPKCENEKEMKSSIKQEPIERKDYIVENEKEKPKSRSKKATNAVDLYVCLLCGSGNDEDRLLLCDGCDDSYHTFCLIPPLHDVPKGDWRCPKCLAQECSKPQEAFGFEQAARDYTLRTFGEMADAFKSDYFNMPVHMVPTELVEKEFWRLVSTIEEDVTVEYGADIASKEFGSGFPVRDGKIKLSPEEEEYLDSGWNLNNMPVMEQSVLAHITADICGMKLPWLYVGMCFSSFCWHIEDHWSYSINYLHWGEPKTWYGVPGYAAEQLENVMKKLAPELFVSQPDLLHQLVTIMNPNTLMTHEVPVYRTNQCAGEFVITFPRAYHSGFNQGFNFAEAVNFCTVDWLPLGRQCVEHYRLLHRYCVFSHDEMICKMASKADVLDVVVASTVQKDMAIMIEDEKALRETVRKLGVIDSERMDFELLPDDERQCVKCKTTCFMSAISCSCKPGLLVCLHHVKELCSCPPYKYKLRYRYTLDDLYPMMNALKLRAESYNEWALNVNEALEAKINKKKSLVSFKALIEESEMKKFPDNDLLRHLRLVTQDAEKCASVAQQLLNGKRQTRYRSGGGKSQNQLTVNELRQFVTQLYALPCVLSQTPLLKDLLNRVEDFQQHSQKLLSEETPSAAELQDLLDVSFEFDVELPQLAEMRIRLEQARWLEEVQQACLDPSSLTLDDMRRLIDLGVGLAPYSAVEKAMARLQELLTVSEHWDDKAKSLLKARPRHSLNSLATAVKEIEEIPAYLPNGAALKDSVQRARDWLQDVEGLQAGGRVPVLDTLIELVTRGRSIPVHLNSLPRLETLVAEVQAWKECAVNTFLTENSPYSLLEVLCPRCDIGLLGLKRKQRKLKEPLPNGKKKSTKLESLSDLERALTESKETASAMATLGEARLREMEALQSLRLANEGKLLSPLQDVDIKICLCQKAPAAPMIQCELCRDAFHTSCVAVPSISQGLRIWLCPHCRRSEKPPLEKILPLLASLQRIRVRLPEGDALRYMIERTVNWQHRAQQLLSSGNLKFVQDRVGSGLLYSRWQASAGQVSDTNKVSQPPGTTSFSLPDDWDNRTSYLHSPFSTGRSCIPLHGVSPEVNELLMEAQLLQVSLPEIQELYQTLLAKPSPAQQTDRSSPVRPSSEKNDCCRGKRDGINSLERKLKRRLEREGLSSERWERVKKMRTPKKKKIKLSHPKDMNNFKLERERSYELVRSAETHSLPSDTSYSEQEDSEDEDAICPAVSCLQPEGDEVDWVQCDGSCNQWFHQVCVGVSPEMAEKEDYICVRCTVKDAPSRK
Test: Primary screen for KDM5B Histone Demethylases FDH-coupled qHTS; also: nearly all actives have a fitted effect of over 70% in size
Conditions: FDH-coupled NADH fluorescence (FDH is formaldehyde dehydrogenase); series mostly up to 57.7 µM
Outline: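 Inhibition is measured as reduced NADH fluorescence generation from FDH coupling to formaldehyde release. Truncated KDM5BΔAP at 200 nM final acts on H3K4me3 peptide (12.5 µM in substrate mix) in pH 7.5 HEPES buffer with Tween-20, 30 min, room temperature.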
Potency is read from the fitted curve at half-maximal effect; tags tell the direction and shape of the fitted curve.

Q: `CCOc1cccc(-c2cc(C(=O)OC)c3ccccc3n2)c1` was tested. Which Potency did it give?
A: inconclusive: 22.4 µM [inhibitor, partial curve, poor fit]

Q: Which Potency does the source give for `Cc1ccccc1CN1CCc2nc(C(=O)NCc3ccncc3)oc2CC1` here?
A: inconclusive: 31.6 µM [inhibitor, single point]

Q: `COc1ccc2nc3n(c2c1)[C@@H](CNS(=O)(=O)c1ccccc1)COC3` was tested. Which Potency did it give?
A: inconclusive: 31.6 µM [inhibitor, single point]

Q: Which Potency does the source give for `O=C(Nc1cc(S(=O)(=O)N2CCCCC2)ccc1Oc1ccc(Cl)cc1)c1cnccn1` here?
A: inactive

Q: How did the Potency turn out when `COc1ccc(-c2cc(C(=O)OCC(=O)c3cccc(OC)c3)c3cccc(Cl)c3n2)cc1` was run?
A: inconclusive: 7.08 µM [inhibitor, partial curve, poor fit]

Q: `O=C(N/N=C/c1ccccn1)C(=O)N1CCCCCC1` was tested. Which Potency did it give?
A: inconclusive: 8.91 µM [inhibitor, full curve, poor fit]

Q: Which Potency does the source give for `Cc1ccccc1CNC(=O)C1CCCN(c2nnc(-n3c(C)ccc3C)s2)C1` (stereo not drawn) here?
A: inconclusive: 10 µM [inhibitor, partial curve, poor fit]

Q: `O=C1Nc2ccc(-c3ccccc3F)cc2C(=O)N2CCN(C(=O)c3ccco3)C[C@@H]12` was tested. Which Potency did it give?
A: active: 35.5 µM

Q: With `Cc1ccc(C)c(/C(O)=C2\C(=O)C(=O)N(c3nnc(C)s3)C2c2ccc(C(C)C)cc2)c1` (stereo not drawn) as the compound, how does the Potency read?
A: inconclusive: 20 µM [inhibitor, single point]

Q: How did the Potency turn out when `CCCOc1ccccc1C(=O)N(Cc1ccc(C(C)C)cc1)C1CCS(=O)(=O)C1` (stereo not drawn) was run?
A: inactive

Q: With `CCCCC/C=N\Nc1nc(C)nc(N)n1` as the compound, how does the Potency read?
A: inactive

Q: How did the Potency turn out when `CC(Sc1ccc2c(c1)OCCCO2)C(=O)Nc1ccc(Br)cc1` (stereo not drawn) was run?
A: inactive

Q: `COc1cc(OC)cc(C(=O)N2CCC3(CC2)NC(=O)N(Cc2ccc(F)cc2)C3=O)c1` was tested. Which Potency did it give?
A: inactive

Q: With `Cc1ccc(C)c(NC(=O)Cn2nnc(C(=O)NCc3ccco3)c2N)c1` as the compound, how does the Potency read?
A: inconclusive: 1 µM [inhibitor, full curve, poor fit]

Q: `Cc1cc(SCC(=O)c2c(N)n(Cc3ccccc3)c(=O)n(C)c2=O)nc2ccccc12` was tested. Which Potency did it give?
A: inactive

Q: Which Potency does the source give for `Cc1ccc(S(=O)(=O)Cc2noc([C@@H]3C[C@@H](O)CN3C3CCOCC3)n2)cc1` here?
A: inconclusive: 35.5 µM [inhibitor, single point]

Q: How did the Potency turn out when `COc1ccccc1CNCc1ccco1` was run?
A: inconclusive: 28.2 µM [inhibitor, partial curve, poor fit]

Q: How did the Potency turn out when `CCCN1C(=O)Cc2cc(C(=O)NC3CC3)ccc21` was run?
A: inactive

Q: With `Cc1nn(-c2ccccc2)c(C)c1CN(C)C(=O)CNC(=O)c1ccc(Oc2ccccc2)cc1` as the compound, how does the Potency read?
A: inactive

Q: Which Potency does the source give for `Cc1ccc(CNC(=O)C(C)C2CCOCC2)cc1` (stereo not drawn) here?
A: inconclusive: 31.6 µM [inhibitor, single point]

Q: How did the Potency turn out when `CC(=O)NC1(C)CCN(Cc2cnc(-c3ccccc3OCc3ccccc3)s2)CC1` was run?
A: active: 39.8 µM

Q: With `N#CCCSc1sc(=S)sc1SCc1c(F)c(F)c(F)c(F)c1F` as the compound, how does the Potency read?
A: inactive

Q: How did the Potency turn out when `O=C(Nc1ccc(Cl)nc1)c1ccc2cc[nH]c2n1` was run?
A: inconclusive: 100 µM [inhibitor, partial curve, poor fit] and inconclusive: 126 µM [inhibitor, single point]

Q: With `CSc1nc(N)c2c(n1)NC1=C(C(=O)CC(C)(C)C1)C2c1cccnc1` (stereo not drawn) as the compound, how does the Potency read?
A: inconclusive: 20 µM [inhibitor, partial curve, poor fit]

Q: With `Cc1ccc(C(=O)/C=C/c2cc(Br)c(O)c(Br)c2)cc1` as the compound, how does the Potency read?
A: inconclusive: 28.2 µM [inhibitor, partial curve, poor fit]

Q: Which Potency does the source give for `Cc1cn2nc(C(=O)Nc3cccc(F)c3C)cc2c(N2CCCC2)n1` here?
A: active: 25.1 µM

Q: For `Cc1nn(-c2ccc(C(C)(C)C)cc2)c(C)c1[C@@H]1C=C[C@@H](NC(=O)c2cccs2)C1`, which Potency is on record?
A: inconclusive: 28.2 µM [inhibitor, single point]

Q: `CN(C)C[C@@H]1CN(c2ncccn2)C[C@H]1NC(=O)c1cc2ccccc2[nH]1` was tested. Which Potency did it give?
A: active: 28.2 µM

Q: `COCc1ccc2c(c1)c(OC(C)(C)C(=O)Nc1ccc(OC)cc1)nn2Cc1cccnc1` was tested. Which Potency did it give?
A: inactive

Q: How did the Potency turn out when `O=C(Nc1ccc2nc(SCC(=O)N3CCCc4ccccc43)sc2c1)c1ccccc1F` was run?
A: inconclusive: 25.1 µM [inhibitor, partial curve, poor fit]

Q: For `CCCN(CC1CC1)C(=O)c1ccc2c(c1)C(O)CCCCCN2CCOC` (stereo not drawn), which Potency is on record?
A: inconclusive: 31.6 µM [inhibitor, partial curve, poor fit]

Q: `Cc1ccccc1-c1cnc2[nH]cc(CC(=O)NC3CCOCC3)c2c1` was tested. Which Potency did it give?
A: inconclusive: 39.8 µM [inhibitor, partial curve, poor fit]

Q: `CN1CC(n2ccnc2-c2cnc(-c3cccc4ccccc34)nc2)CCC1=O` (stereo not drawn) was tested. Which Potency did it give?
A: inconclusive: 28.2 µM [inhibitor, partial curve, poor fit]

Q: `CSc1ccc(-c2nc(CN3CCOCC(CN(C)C)C3)c(C)o2)cc1` (stereo not drawn) was tested. Which Potency did it give?
A: inconclusive: 31.6 µM [inhibitor, partial curve, poor fit]

Q: With `CC(=O)NCc1ccc(-c2csc(Nc3ccc(F)cc3)n2)o1` as the compound, how does the Potency read?
A: inactive

Q: With `O=C(CCNc1cnc2cnccn12)NCc1ccc(F)c(Cl)c1` as the compound, how does the Potency read?
A: active: 25.1 µM

Q: `O=c1c2sc3ccccc3c2n(Cc2ccc(F)cc2)c(=O)n1Cc1ccco1` was tested. Which Potency did it give?
A: inconclusive: 12.6 µM [inhibitor, partial curve, poor fit]

Q: `O=C(NC1CC1)c1ccnc2[nH]ccc12` was tested. Which Potency did it give?
A: active: 141 µM

Q: With `Cc1cc(C)cc(NC(=O)c2ccc3c(c2)N(C)C2CCCCCN2C3=O)c1` (stereo not drawn) as the compound, how does the Potency read?
A: inconclusive: 31.6 µM [inhibitor, partial curve, poor fit]

Q: `CCC1c2nccn2CCCN1C(=O)CCn1nc(C)cc1C` (stereo not drawn) was tested. Which Potency did it give?
A: inactive

Q: How did the Potency turn out when `COc1cc(NC(=O)N2C[C@@H]3C[C@H](C2)c2ccc(NC(=O)c4ccc(F)cc4)c(=O)n2C3)cc(OC)c1` was run?
A: inconclusive: 20 µM [inhibitor, partial curve]

Q: With `CCOC(=O)c1ccc(CNC(=O)c2cn(CCCc3ccccc3)nn2)o1` as the compound, how does the Potency read?
A: inconclusive: 14.1 µM [inhibitor, partial curve]

Q: How did the Potency turn out when `Cc1ccc(-c2ccc3nnc(CNC(=O)C4CCCC4)n3n2)cc1C` was run?
A: inconclusive: 28.2 µM [inhibitor, partial curve, poor fit]
